{
  "source": "the supplement of paper PMC8728848",
  "assay_in_all_cases": "glycan array binding signal (z-score within array); higher = stronger binding",
  "details_in_all_cases": "glycan notation: IUPAC condensed, linker removed",
  "key": {"[1]": {"target": "GalNAc(b1-4)GlcNAc(b1-2)Man", "outline": "(§1)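 The binding signal is a Z-score computed within each array and averaged over linkers. Arrays of the same protein sequence at different concentrations or buffers were also averaged together. Data originate from 3228 arrays in the Consortium for Functional Glycomics database, kept only where the protein sequence was available.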"}, "[2]": {"target": "GalNAc(b1-4)GlcNAc(b1-2)Man(a1-3)[GalNAc(b1-4)GlcNAc(b1-2)Man(a1-6)]Man(b1-4)GlcNAc(b1-4)GlcNAc", "outline": "as §1"}, "[3]": {"target": "GalNAc(b1-4)GlcNAc(b1-3)GalNAc(b1-4)GlcNAc", "outline": "as §1"}, "GalNAc(b1-4)GlcNAc6S": {"target": "GalNAc(b1-4)GlcNAc6S", "outline": "as §1"}, "GalNAc(b1-6)GalNAc": {"target": "GalNAc(b1-6)GalNAc", "outline": "as §1"}, "GalNAc3S(b1-4)GlcNAc": {"target": "GalNAc3S(b1-4)GlcNAc", "outline": "as §1"}, "GalNAc3S(b1-4)GlcNAc3S": {"target": "GalNAc3S(b1-4)GlcNAc3S", "outline": "as §1"}, "[4]": {"target": "GalNAc3S(b1-4)[Fuc(a1-3)]GlcNAc", "outline": "as §1"}, "GalNAc4S6S(b1-4)GlcNAc": {"target": "GalNAc4S6S(b1-4)GlcNAc", "outline": "as §1"}, "GalNAc6S(b1-4)GlcNAc": {"target": "GalNAc6S(b1-4)GlcNAc", "outline": "as §1"}, "Glc(a1-4)Glc": {"target": "Glc(a1-4)Glc", "outline": "as §1"}, "[5]": {"target": "Glc(a1-4)Glc(a1-4)Glc(a1-4)Glc", "outline": "as §1"}, "Glc(a1-6)Glc(a1-6)Glc": {"target": "Glc(a1-6)Glc(a1-6)Glc", "outline": "as §1"}, "[6]": {"target": "Glc(a1-6)Glc(a1-6)Glc(a1-6)Glc", "outline": "as §1"}, "Glc(b1-4)Glc": {"target": "Glc(b1-4)Glc", "outline": "as §1"}, "Glc(b1-6)Glc": {"target": "Glc(b1-6)Glc", "outline": "as §1"}, "GlcA(b1-3)Gal": {"target": "GlcA(b1-3)Gal", "outline": "as §1"}, "GlcA(b1-3)GlcNAc": {"target": "GlcA(b1-3)GlcNAc", "outline": "as §1"}, "GlcA(b1-6)Gal": {"target": "GlcA(b1-6)Gal", "outline": "as §1"}, "[7]": {"target": "GlcA3S(b1-3)Gal(b1-4)GlcNAc(b1-2)Man", "outline": "as §1"}, "[8]": {"target": "GlcA3S(b1-3)Gal(b1-4)GlcNAc(b1-3)Gal(b1-4)Glc", "outline": "as §1"}, "[9]": {"target": "GlcNAc(a1-3)Gal(b1-4)GlcNAc", "outline": "as §1"}, "[10]": {"target": "GlcNAc(a1-4)Gal(b1-3)GlcNAc", "outline": "as §1"}, "[11]": {"target": "GlcNAc(a1-4)Gal(b1-4)GalNAc", "outline": "as §1"}, "[12]": {"target": "GlcNAc(a1-4)Gal(b1-4)GlcNAc", "outline": "as §1"}, "[13]": {"target": "GlcNAc(a1-4)Gal(b1-4)GlcNAc(b1-3)Gal(b1-4)Glc", "outline": "as §1"}, "[14]": {"target": "GlcNAc(a1-4)Gal(b1-4)GlcNAc(b1-3)Gal(b1-4)GlcNAc", "outline": "as §1"}, "[15]": {"target": "GlcNAc(a1-4)Gal(b1-4)GlcNAc(b1-3)Gal(b1-4)GlcNAc(b1-3)Gal(b1-4)GlcNAc", "outline": "as §1"}, "[16]": {"target": "GlcNAc(a1-4)Gal(b1-4)GlcNAc(b1-3)Gal(b1-4)[Fuc(a1-3)]GlcNAc(b1-3)Gal(b1-4)[Fuc(a1-3)]GlcNAc", "outline": "as §1"}, "[17]": {"target": "GlcNAc(a1-6)Gal(b1-4)GlcNAc", "outline": "as §1"}, "[18]": {"target": "GlcNAc(b1-2)Gal(b1-3)GalNAc", "outline": "as §1"}, "[19]": {"target": "GlcNAc(b1-2)Man(a1-3)[GlcNAc(b1-2)Man(a1-6)]Man(b1-4)GlcNAc(b1-4)GlcNAc", "outline": "as §1"}, "[20]": {"target": "GlcNAc(b1-2)Man(a1-3)[GlcNAc(b1-2)Man(a1-6)]Man(b1-4)GlcNAc(b1-4)[Fuc(a1-6)]GlcNAc", "outline": "as §1"}, "[21]": {"target": "GlcNAc(b1-2)Man(a1-3)[GlcNAc(b1-4)][GlcNAc(b1-2)Man(a1-6)]Man(b1-4)GlcNAc(b1-4)GlcNAc", "outline": "as §1"}, "[22]": {"target": "GlcNAc(b1-2)Man(a1-3)[GlcNAc(b1-4)][GlcNAc(b1-2)Man(a1-6)]Man(b1-4)GlcNAc(b1-4)[Fuc(a1-6)]GlcNAc", "outline": "as §1"}, "[23]": {"target": "GlcNAc(b1-2)[GlcNAc(b1-4)]Man(a1-3)[GlcNAc(b1-2)Man(a1-6)]Man(b1-4)GlcNAc(b1-4)GlcNAc", "outline": "as §1"}, "[24]": {"target": "GlcNAc(b1-2)[GlcNAc(b1-4)]Man(a1-3)[GlcNAc(b1-4)][GlcNAc(b1-2)Man(a1-6)]Man(b1-4)GlcNAc(b1-4)GlcNAc", "outline": "as §1"}, "[25]": {"target": "GlcNAc(b1-2)[GlcNAc(b1-4)]Man(a1-3)[GlcNAc(b1-4)][GlcNAc(b1-2)[GlcNAc(b1-6)]Man(a1-6)]Man(b1-4)GlcNAc(b1-4)GlcNAc", "outline": "as §1"}, "[26]": {"target": "GlcNAc(b1-2)[GlcNAc(b1-4)]Man(a1-3)[GlcNAc(b1-4)][GlcNAc(b1-2)[GlcNAc(b1-6)]Man(a1-6)]Man(b1-4)GlcNAc(b1-4)[Fuc(a1-6)]GlcNAc", "outline": "as §1"}, "[27]": {"target": "GlcNAc(b1-2)[GlcNAc(b1-6)]Man(a1-6)[GlcNAc(b1-2)Man(a1-3)]Man(b1-4)GlcNAc(b1-4)GlcNAc", "outline": "as §1"}, "[28]": {"target": "GlcNAc(b1-2)[GlcNAc(b1-6)]Man(a1-6)[GlcNAc(b1-2)Man(a1-3)]Man(b1-4)GlcNAc(b1-4)[Fuc(a1-6)]GlcNAc", "outline": "as §1"}, "[29]": {"target": "GlcNAc(b1-2)[GlcNAc(b1-6)]Man(a1-6)[GlcNAc(b1-4)][GlcNAc(b1-2)Man(a1-3)]Man(b1-4)GlcNAc(b1-4)GlcNAc", "outline": "as §1"}, "GlcNAc(b1-3)Fuc": {"target": "GlcNAc(b1-3)Fuc", "outline": "as §1"}, "GlcNAc(b1-3)Gal": {"target": "GlcNAc(b1-3)Gal", "outline": "as §1"}, "[30]": {"target": "GlcNAc(b1-3)Gal(b1-3)GalNAc", "outline": "as §1"}},
  "note": "This is one part of the list.",
  "data": [
    {"binder": "AT1G15820(NC) (Arabidopsis thaliana) (protein) MAMAVSGAVLSGLGSSFLTGGKRGATALASGVGDAIAPFSFGSLLGTQLLLMGWVESKRWVDFFNPDSQSVEWATPWSKTAENFANYTGDQGYPGGRFFDPLGLAGKNRDGVYEPDFEKLERLKLAEIKHSRLAMVAMLIFYFEAGQGKTPLGALGL", "values": [
      {"measurement": "glycan array binding signal (z-score)", "setting": "[1]", "result": -0.306},
      {"measurement": "glycan array binding signal (z-score)", "setting": "[2]", "result": 1.2},
      {"measurement": "glycan array binding signal (z-score)", "setting": "[3]", "result": -0.212},
      {"measurement": "glycan array binding signal (z-score)", "setting": "GalNAc(b1-4)GlcNAc6S", "result": -0.282},
      {"measurement": "glycan array binding signal (z-score)", "setting": "GalNAc(b1-6)GalNAc", "result": -0.289},
      {"measurement": "glycan array binding signal (z-score)", "setting": "GalNAc3S(b1-4)GlcNAc", "result": -0.485},
      {"measurement": "glycan array binding signal (z-score)", "setting": "GalNAc3S(b1-4)GlcNAc3S", "result": -0.678},
      {"measurement": "glycan array binding signal (z-score)", "setting": "[4]", "result": -0.394},
      {"measurement": "glycan array binding signal (z-score)", "setting": "GalNAc4S6S(b1-4)GlcNAc", "result": -0.427},
      {"measurement": "glycan array binding signal (z-score)", "setting": "GalNAc6S(b1-4)GlcNAc", "result": 0.156},
      {"measurement": "glycan array binding signal (z-score)", "setting": "Glc(a1-4)Glc", "result": 0.253},
      {"measurement": "glycan array binding signal (z-score)", "setting": "[5]", "result": -0.314},
      {"measurement": "glycan array binding signal (z-score)", "setting": "Glc(a1-6)Glc(a1-6)Glc", "result": -0.276},
      {"measurement": "glycan array binding signal (z-score)", "setting": "[6]", "result": -0.393},
      {"measurement": "glycan array binding signal (z-score)", "setting": "Glc(b1-4)Glc", "result": 2},
      {"measurement": "glycan array binding signal (z-score)", "setting": "Glc(b1-6)Glc", "result": -0.183},
      {"measurement": "glycan array binding signal (z-score)", "setting": "GlcA(b1-3)Gal", "result": -0.102},
      {"measurement": "glycan array binding signal (z-score)", "setting": "GlcA(b1-3)GlcNAc", "result": 0.028},
      {"measurement": "glycan array binding signal (z-score)", "setting": "GlcA(b1-6)Gal", "result": -0.509},
      {"measurement": "glycan array binding signal (z-score)", "setting": "[7]", "result": -0.63},
      {"measurement": "glycan array binding signal (z-score)", "setting": "[8]", "result": -0.568},
      {"measurement": "glycan array binding signal (z-score)", "setting": "[9]", "result": 0.391},
      {"measurement": "glycan array binding signal (z-score)", "setting": "[10]", "result": -0.143},
      {"measurement": "glycan array binding signal (z-score)", "setting": "[11]", "result": -0.41},
      {"measurement": "glycan array binding signal (z-score)", "setting": "[12]", "result": -0.328},
      {"measurement": "glycan array binding signal (z-score)", "setting": "[13]", "result": -0.564},
      {"measurement": "glycan array binding signal (z-score)", "setting": "[14]", "result": -0.177},
      {"measurement": "glycan array binding signal (z-score)", "setting": "[15]", "result": -0.156},
      {"measurement": "glycan array binding signal (z-score)", "setting": "[16]", "result": -0.106},
      {"measurement": "glycan array binding signal (z-score)", "setting": "[17]", "result": -0.626},
      {"measurement": "glycan array binding signal (z-score)", "setting": "[18]", "result": 0.572},
      {"measurement": "glycan array binding signal (z-score)", "setting": "[19]", "result": -0.455},
      {"measurement": "glycan array binding signal (z-score)", "setting": "[20]", "result": -0.44},
      {"measurement": "glycan array binding signal (z-score)", "setting": "[21]", "result": -0.527},
      {"measurement": "glycan array binding signal (z-score)", "setting": "[22]", "result": -0.535},
      {"measurement": "glycan array binding signal (z-score)", "setting": "[23]", "result": -0.544},
      {"measurement": "glycan array binding signal (z-score)", "setting": "[24]", "result": -0.219},
      {"measurement": "glycan array binding signal (z-score)", "setting": "[25]", "result": -0.358},
      {"measurement": "glycan array binding signal (z-score)", "setting": "[26]", "result": -0.424},
      {"measurement": "glycan array binding signal (z-score)", "setting": "[27]", "result": -0.221},
      {"measurement": "glycan array binding signal (z-score)", "setting": "[28]", "result": -0.03},
      {"measurement": "glycan array binding signal (z-score)", "setting": "[29]", "result": -0.747},
      {"measurement": "glycan array binding signal (z-score)", "setting": "GlcNAc(b1-3)Fuc", "result": -0.262},
      {"measurement": "glycan array binding signal (z-score)", "setting": "GlcNAc(b1-3)Gal", "result": -0.534},
      {"measurement": "glycan array binding signal (z-score)", "setting": "[30]", "result": -0.201}
    ]}
  ]
}
